Hit rate of the full screen: of about 310,000 compounds, about 2,200 (0.71%) showed an effect of 50% or more. The effect is printed as a negative number. The list shows a part of the results.
Biological target: human ether-à-go-go-related gene (hERG) potassium channel (human, UniProt Q12809)
Experiment: primary screen, population patch clamp on CHO cells stably expressing hERG

Sequence of human ether-à-go-go-related gene (hERG) potassium channel (Q12809 whole entry, looked up): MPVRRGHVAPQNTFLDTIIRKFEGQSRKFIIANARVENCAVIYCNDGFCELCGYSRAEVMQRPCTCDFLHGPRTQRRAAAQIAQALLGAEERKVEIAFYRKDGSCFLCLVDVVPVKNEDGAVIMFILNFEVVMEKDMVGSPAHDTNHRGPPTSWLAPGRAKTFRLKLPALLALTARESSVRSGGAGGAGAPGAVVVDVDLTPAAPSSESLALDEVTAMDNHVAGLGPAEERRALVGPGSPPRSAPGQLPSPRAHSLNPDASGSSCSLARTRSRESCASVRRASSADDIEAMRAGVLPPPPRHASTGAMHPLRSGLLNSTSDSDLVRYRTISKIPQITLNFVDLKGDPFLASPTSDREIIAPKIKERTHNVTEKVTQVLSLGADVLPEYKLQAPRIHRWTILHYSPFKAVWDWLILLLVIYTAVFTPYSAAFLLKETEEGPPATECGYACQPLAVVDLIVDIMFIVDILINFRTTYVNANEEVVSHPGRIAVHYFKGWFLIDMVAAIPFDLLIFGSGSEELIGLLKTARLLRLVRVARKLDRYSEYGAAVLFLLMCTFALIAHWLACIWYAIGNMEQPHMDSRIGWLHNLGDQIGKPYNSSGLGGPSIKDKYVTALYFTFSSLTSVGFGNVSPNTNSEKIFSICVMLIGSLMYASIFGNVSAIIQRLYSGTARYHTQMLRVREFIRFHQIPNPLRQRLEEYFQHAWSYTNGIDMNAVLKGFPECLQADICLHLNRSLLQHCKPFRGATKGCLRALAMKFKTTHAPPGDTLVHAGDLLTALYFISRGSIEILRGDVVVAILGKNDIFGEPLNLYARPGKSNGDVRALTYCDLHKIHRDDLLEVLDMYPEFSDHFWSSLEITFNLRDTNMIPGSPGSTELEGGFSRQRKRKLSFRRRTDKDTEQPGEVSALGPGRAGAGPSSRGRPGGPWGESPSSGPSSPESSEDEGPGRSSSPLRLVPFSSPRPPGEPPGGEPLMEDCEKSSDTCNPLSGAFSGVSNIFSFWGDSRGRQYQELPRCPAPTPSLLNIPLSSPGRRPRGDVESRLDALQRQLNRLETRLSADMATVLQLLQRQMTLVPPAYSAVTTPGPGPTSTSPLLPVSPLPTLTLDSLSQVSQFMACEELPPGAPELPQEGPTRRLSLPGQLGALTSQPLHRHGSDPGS

Row | SMILES | hERG current change (%, negative = inhibition) at 1uM [%]
1 | Cc1ccccc1OCC(=O)N/N=C/c1ccccn1 | 14.6
2 | COc1cccc2sc(=NC(=O)CS(=O)(=O)c3ccc(Cl)cc3)n(C)c12 | -12.8
3 | COc1cccc(C2CC(c3ccc(Cl)cc3)n3nc(N)nc3N2)c1 (stereo not shown) | 0.765
4 | CCCc1cc(=O)oc2cc(C)c(CN3CCCC3)c(O)c12 | 16.3
5 | Cc1nnc(SCC2=C(C(=O)[O-])N3C(=O)[C@@H](NC(=O)Cn4cnnn4)[C@H]3SC2)s1.[Na+] | 9.17
6 | CCOC(=O)c1cc2sc(C)cc2n1CC(=O)N1CCN(C(=O)c2ccco2)CC1 | 4.59
7 | O=C(O)[C@@H]1C[C@H]1[C@@H](NP(=O)(c1ccccc1)c1ccccc1)c1ccccc1 | 5.4
8 | COC(=O)C1CCN(C(=O)NC(C)(C)C)CC1 | 9.98
9 | CC(C)C(NC(=O)c1ccc(F)cc1)C(=O)OCC(=O)N1CC(=O)Nc2ccccc21 (stereo not shown) | 3.46
10 | COc1ccc(Nc2nc(NC(C)(C)C)nc(N3CCCC3)n2)c(OC)c1 | 14.4
11 | O=C(Nc1cccc(C(=O)N2CCCC2)c1)c1ccccc1 | 7.23
12 | COc1ccc(NC(=S)N2CCC(N(C)CCN3CCOCC3)CC2)cc1 | 11.6
13 | COC(=O)C(Cc1c[nH]c2ccccc12)NC(=O)C(=O)c1c[nH]c2ccccc12 (stereo not shown) | 8.23
14 | CCOC(=O)c1[nH]nc(C(=O)c2ccc(Br)cc2)c1O | 3.11
15 | O=C(NCCN1CCOCC1)c1cc(=O)[nH]c2ccc(Br)cc12 | 0.61
16 | Cc1cccc(N2CCN(C3=NC(=O)C(=C4CCCCC4)S3)CC2)c1 | 14.9
17 | Cc1ccc(-c2cc(C(=O)Nc3cccc(S(=O)(=O)N(C)C)c3)c3ccccc3n2)o1 | 15.2
18 | O=C(CN1C(=O)c2ccccc2C1=O)Nc1ccc(S(=O)(=O)N2CCOCC2)cc1 | 9.17
19 | CCN(CC)S(=O)(=O)c1cccc(C(=O)Nc2cc(C)on2)c1 | 9.74
20 | CC(C)(C)OC(=O)COc1cc(OCC(=O)OC(C)(C)C)c2c(=O)cc(-c3ccccc3)oc2c1 | 2.95
21 | COc1ccc(NC(=O)N2CCN(c3cccc(C(F)(F)F)c3)CC2)cc1 | 8.34
22 | Cc1cccc(NC(=O)C2CCCN2S(=O)(=O)c2ccc(Cl)cc2)n1 (stereo not shown) | 2.36

Row | SMILES | hERG current change (%, negative = inhibition) at 1uM [%]
23 | COC(=O)C1=C(N)Oc2cc(C)n(CC3CCCO3)c(=O)c2C1c1ccc(Cl)cc1 (stereo not shown) | 13.4
24 | COCCN(CCOC)C(=O)c1ccc(NS(=O)(=O)c2ccc3c(c2)OCCO3)cc1 | 14.3
25 | COc1ccc(C(CNC(=O)CCNS(=O)(=O)c2ccc(C)cc2)N2CCOCC2)cc1 (stereo not shown) | -12.5
26 | CCOc1cccc(-c2nn(-c3ccccc3)cc2/C=C(/C#N)C(=O)NCCCn2ccnc2)c1 | -1.55
27 | Cc1cc(C(=O)NNC(=O)Nc2ccccc2)no1 | 4.25
28 | Cc1ccc(S(=O)(=O)N(C)c2cc(S(=O)(=O)Nc3ccncc3)c(C)cc2C)cc1 | 9.62
29 | O=C(N/N=C/c1cccnc1)c1[nH]ncc1Br | 16.1
30 | O=C(NC(=S)N1C[C@H]2C[C@H](C1)c1cccc(=O)n1C2)c1ccc(Cl)cc1 | -4.09
31 | CC(=O)Nc1ccc(S(=O)(=O)NCc2ccc(C(=O)NC(C)c3ccccc3)cc2)cc1 (stereo not shown) | 2.63
32 | Cc1ccc2[nH]c(=O)c(CC=C(Cl)Cl)c(C)c2c1 | 7.82
33 | CCC1C(=O)NCCN1C(=O)c1cc(COc2cc(C)ccc2C)on1 (stereo not shown) | 11.7
34 | CCOC(=O)CSc1nnc(-c2cccnc2)n1Cc1ccccc1 | 6.53
35 | CCOc1ccc(-c2[nH]ncc2-c2ccc(Cl)cc2)c(O)c1 | 12
36 | Cc1c(C(=O)NCc2cccnc2)oc2ccc(S(=O)(=O)N3CCC4(CC3)OCCO4)cc12 | 10.7
37 | CCOc1ccc(-c2nc(N)ncc2Oc2cccc(OC)c2)c(O)c1 | 8.08
38 | CCN(C(=O)N(CC)c1ccccc1)c1ccccc1 | 12.2
39 | CCOP(=O)(c1ccccc1)C(O)c1ccc(F)cc1 (stereo not shown) | 6.73
40 | Cc1ccc(/C=C(\C#N)C(=O)Nc2cccc(C)n2)cc1 | 11.5
41 | COc1ccc(-c2cc(C(=O)NC(Cc3c[nH]c4ccccc34)C(=O)O)c(C)o2)cc1OC (stereo not shown) | 18.2
42 | COCCN(CCOC)S(=O)(=O)c1ccc(/C(O)=C(\C#N)c2nc3ccccc3[nH]2)cc1 | 3.63
43 | O=C(CC1CCCCC1)OCn1nnc2ccccc2c1=O | -3.31
44 | Cc1cc(=O)[nH]c(/N=C(\N)Nc2cccc3ccccc23)n1 | 14

Row | SMILES | hERG current change (%, negative = inhibition) at 1uM [%]
45 | CCSC1(SCC)N=C(N)C2(C#N)C(c3ccccc3)NC(C)=CC12C#N (stereo not shown) | 17
46 | O=S(=O)(Nc1nc(CN2CCOCC2)nc2sc3c(c12)CCCC3)c1cc(F)ccc1F | 7.88
47 | C/C(=N\NC(=O)c1ccccc1Cl)c1c(O)n(C2CCCCC2)c(=O)[nH]c1=O | 17
48 | CCOC(=O)C1CCN(S(=O)(=O)c2ccc(OC)c(C(=O)N3CCCCC3)c2)CC1 | 14
49 | Cc1cccc(NC(=S)N(CCCN2CCOCC2)C(C)c2cc3ccccc3o2)c1 (stereo not shown) | 2.31
50 | CCOC(=O)c1sc(NC(=O)COC(=O)CNC(=O)C2CCCCC2)c(C(=O)OCC)c1C | 14.6
51 | COCCCN1C(=O)C2C(C(=O)Nc3cc(C)cc(C)c3)C3C=CC2(O3)C1C(=O)NC1CCCCC1 (stereo not shown) | 10.9
52 | COc1ccc(CCNC(=O)CC2SC(=Nc3cc(C)cc(C)c3)NC2=O)cc1OC (stereo not shown) | 6.5
53 | COC(=O)CCSCc1cn2cc(Cl)ccc2n1 | 21.1
54 | CCOC(=O)C1(Cc2ccc(OC)cc2)CCN(C(=O)CN2CCCCC2=O)CC1 | 11.5
55 | Cc1cc(=O)n2nc(-c3ccccc3)sc2c1C#N | 2.21
56 | COc1ccc(Cl)cc1NC(=O)CCNC(=O)Cn1ccc2ccccc2c1=O | 9.89
57 | O=C(CCC(=O)c1ccc(Oc2ccccc2)cc1)Nc1ccc(C(=O)O)cc1 | 19.6
58 | CCc1ccc(/C=N/NC(=O)c2cc(C)on2)s1 | 5.45
59 | COc1ccc(C2=NN(C(=O)CCC(=O)O)C(c3ccc(OC)c(OC)c3)C2)cc1 (stereo not shown) | 10.2
60 | Cc1ccc(N2CCN(S(=O)(=O)c3ccc4c(c3)NC(=O)C(C)C(=O)N4)CC2C)cc1 (stereo not shown) | 13.5
61 | COc1cccc(C(c2nnnn2CCc2ccccc2)N2CCN(c3ccccc3)CC2)c1OC (stereo not shown) | 4.6
62 | O=C(Nc1cccc(Cl)c1)c1cc(F)cc2c1OCOC2 | 9.24
63 | CCOC(=O)c1cn2nc(N3CCCC3)ccc2n1 | 10.5
64 | COc1cccc(Oc2c(C)oc3c(CN4CCCC4)c(O)ccc3c2=O)c1 | -3.38
65 | CN1CCN(C(=S)c2cn(Cc3ccccc3)c3ccccc23)CC1 | 8.36
66 | COc1ccc(Cl)cc1NC(=O)CSc1nc(-c2ccccc2)cc(=O)[nH]1 | 1.34

Row | SMILES | hERG current change (%, negative = inhibition) at 1uM [%]
67 | COc1ccc(C(=O)N[C@H](C(=O)Nc2ccc(S(=O)(=O)N3CCOCC3)cc2)C(C)C)cc1 | 3.97
68 | CC(=O)Oc1ccc(C(=O)O)c(OC(C)=O)c1 | 12.3
69 | CCOc1cc(/C=N\NC(=O)OC)ccc1OC(=O)c1ccco1 | 11.4
70 | COc1cccc(NC(=O)CN(C)C(=O)/C=C/c2cc(OC)ccc2OC)c1 | -11.8
71 | CCOc1ccc(CNC(=O)c2ccc(Sc3ccc(Cl)cc3)c(NC(C)=O)c2)cc1OC | 6.22
72 | Cc1cccc(C)c1NC(=O)CN(C)C(=O)c1ccc(-c2cccc(C(F)(F)F)c2)o1 | 6.2
73 | O=C(NC1CCCCC1)N1CCN(C(=O)c2ccco2)CC1 | 3.28
74 | CCOC(=O)c1ccc(Nc2ncccc2[N+](=O)[O-])cc1 | 13.3
75 | CCCCN(CC(=O)NC(C)(C)C)C(=O)C(=O)Nc1ccc2c(c1)OCCO2 | 4.53
76 | CC1CN(C(=O)c2ccc(COc3ccc4ccccc4c3)o2)CC(C)O1 (stereo not shown) | 7.64
77 | CCCCCCCCCCCCS(=O)(=O)CCC(=O)O | 7.86
78 | Cc1ccc(-c2nnnn2C2C/C(=N\NC(N)=S)C3OCC2O3)cc1 (stereo not shown) | 4.91
79 | Cc1cccc2c1[nH]c1nc(N/N=C\c3ccco3)nnc12 | 14.8
80 | COc1ccc(OCC(=O)N/N=C/c2cccc3cccnc23)cc1 | 14.2
81 | O=c1ccc2cc(S(=O)(=O)N3CCOCC3)ccc2o1 | 9.59
82 | CCOC(=O)C1=C(O)/C(=C\c2ccc(OC)c(OC)c2)N=C1C | 12.6
83 | CCOC(=O)c1c(NC(C)=O)sc(C(=O)NC2CCCC2)c1C | 14.5
84 | O=C(O)C1C(c2ccccc2)C(C(=O)Oc2ccc(O)cc2)C1c1ccccc1 (stereo not shown) | 3.6
85 | Cc1nn(-c2ccccc2)c2sc(C(=O)OCn3nnc4ccccc4c3=O)cc12 | 6.84
